Test results published in PubChem BioAssay AID1346428 (National Center for Advancing Translational Sciences (NCATS), 2018).
Where “and” joins values, the source holds several entries; their conditions need not be identical. Equal entries are not always repeated. Out of some 48,000 compounds screened, about 1,200 (2.5%) were called active. About 2% were inconclusive and are not listed.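 The calls were made as follows: active = activation of at least 60% and not above a set upper limit (about 1 call in 100 departs from these limits); inconclusive = activation of 40% to 60%, or above that upper limit; inactive = activation under 40%.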 The list shows a part of the results.

What follows are compounds tested against Probable G-protein coupled receptor 32 (Homo sapiens) (UniProt O75388) (assay: qHTS for Agonists of Human Resolvin D1 Receptor DRV1). Settings: CHO-K1 GPR32 beta-arrestin PathHunter luminescence, 90 min; at 76.9 µM; active compounds read high; zero percent set by DMSO-only wells.
Chain of UniProt O75388 (O75388 whole entry, looked up, the tested form may be a part): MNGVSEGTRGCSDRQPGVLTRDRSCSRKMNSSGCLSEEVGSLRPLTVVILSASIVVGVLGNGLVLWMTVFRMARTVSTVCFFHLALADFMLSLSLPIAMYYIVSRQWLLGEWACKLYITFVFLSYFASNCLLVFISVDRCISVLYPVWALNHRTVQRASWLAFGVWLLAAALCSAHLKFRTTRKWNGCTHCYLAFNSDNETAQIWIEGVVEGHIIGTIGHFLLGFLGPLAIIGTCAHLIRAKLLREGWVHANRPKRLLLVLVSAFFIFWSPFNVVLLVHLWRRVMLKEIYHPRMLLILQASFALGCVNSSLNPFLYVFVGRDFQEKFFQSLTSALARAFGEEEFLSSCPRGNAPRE
In short: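 Agonism was scored as beta-arrestin recruitment to ProLink-fused GPR32 in stably transfected CHO-K1 cells, giving a chemiluminescent beta-Gal signal; compounds were incubated 90 min at 37 °C.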
Also: 0% is about no effect.

activation, inactive:
O=C1CN(C(=O)c2ccc(S(=O)(=O)N3CCCC3)cc2)C(c2ccccc2)c2cc(Cl)ccc2N1 (centres undefined) -29%, O=C(CN1CCN(Cc2ccc(F)cc2Cl)C1=O)NCCc1ccc(Cl)cc1 43.7%, CC(C)c1nc2ccc(C(=O)NCCCN3CCN(c4ccccc4)CC3)cc2o1 -5.81%, Cc1ccc(O)c(Nc2nc3ccccc3c3nncn23)c1 21.3%, COc1cccc(C(=O)Nc2ccc3nc4n(c(=O)c3c2)CCCCC4)c1 1.21%, Cc1cc(C)n(CC(=O)Nc2cc(F)ccc2F)c(=O)c1C#N -4.15%, COc1ccc(OC)c(NC(=O)N2CC(C)Oc3ccc(C)cc32)c1 (centres undefined) -31.1%, Cc1ccc(C(=O)c2cn(CC(=O)NCc3ccccc3)c3nc(C)ccc3c2=O)cc1 8.69%, CCOc1ccc(-c2nc(C(N)=O)c3c(n2)n(-c2ccc4c(c2)OCO4)c(=O)n3CC)cc1 5.48%, O=S(=O)(NCC(c1ccco1)N1CCOCC1)c1ccc(F)cc1 (centres undefined) -0.788%, Cc1cc(C)c2oc(C(=O)Nc3c(C(=O)c4ccccc4)oc4ccccc34)cc(=O)c2c1 14.7%, Cc1ccc(CNC(=O)Cn2cc3c(n2)-c2c(oc(C(=O)N4CCOCC4)c2C)CC3)cc1 8.98%, CC1=C(C(N)=O)C(c2ccccc2F)n2nc(-c3ccc(Cl)cc3)nc2N1 (centres undefined) 5.41%, COC(=O)c1cc(S(=O)(=O)N2CCN(c3cc(Cl)ccc3C)CC2)c[nH]1 13.7%, Cc1ccc(C(=O)NCCC(C)C)cc1NC(=O)c1nsc2ccccc12 -15.7%, COc1cc2c(=O)c(C(=O)c3ccc(F)cc3)cn(Cc3cccc(F)c3)c2cc1OC 10.3%, CCN(CC)c1ccc(NC(=O)Cn2c3ncccc3c(=O)n2-c2ccccc2)c(C)c1 -13.8%, COc1ccccc1CNc1ncnc2c1c(-c1ccccc1)cn2-c1ccc(Br)cc1 -28.7%, CCc1ccc(CNC(=O)c2cnc(N3CCCCC3)c3ccccc23)cc1 -13.9%, CC12CC3CC(C)(C1)CC(N)(C3)C2 -4.38% and -12.3%, COc1ccc(CCNC(=O)C(=O)Nc2ccc(C)c(C)c2)cc1 -1.19%, CC(C)c1ccc(S(=O)(=O)c2cn(CC(=O)Nc3ccc(F)cc3)c3ccccc3c2=O)cc1 -5.15%, O=C(CSc1nc2c(c(=O)[nH]1)CCCC2)Nc1ccccc1C(F)(F)F -7.79%, O=C(CN1C(=O)CC(c2ccco2)Sc2ccccc21)Nc1cccc(C(F)(F)F)c1 (centres undefined) 11.5%, CC1CCN(S(=O)(=O)c2cc(C(=O)NCc3ccc(N(C)C)cc3)n(C)c2)CC1 11.7%, Cc1ccccc1CN1c2ccccc2-c2nc(SCC(=O)c3ccc(Cl)cc3)ncc2S1(=O)=O -16%, Cc1csc2nc(-c3cccc(NS(C)(=O)=O)c3)cn12 19.7%, COCCCNC(=O)CCCN1C(=O)CCn2nc(-c3cccn3C)cc21 -8.59%, CCOc1ccc(NC(=O)Cn2c(=O)cc(C)c3c(C)nn(C)c32)cc1 18.4%, CCc1ccccc1NC(=O)Cn1c(=O)n(Cc2ccccc2)c(=O)c2c(C)c(C(=O)N(C)C)sc21 -14.1%, Cc1csc2nc(-c3ccc(NS(=O)(=O)c4cccc(F)c4)cc3)cn12 -0.302%, Cc1ccc(-c2nc(C)c(CCNC(=O)C(=O)Nc3cc(C)ccc3C)s2)cc1 -7.54%, Cc1oc2ccc(NS(=O)(=O)c3ccc(F)cc3)cc2c1C(=O)O 2.63%, CCCOc1ccc(C2=NC(c3ccncc3)=Nc3ccc(C)cc3N2)cc1 -4.37%, Cc1ccccc1CNC(=O)c1ccc(NC(=O)N2CCCCc3ccccc32)cc1 -7.72%, Cc1ccccc1-c1noc(-c2ccc(N3CCC(C)CC3)c([N+](=O)[O-])c2)n1 -5.9%, Cc1ccc(S(=O)(=O)c2c(Nc3ccc(C)c(C)c3)sc(C(=O)c3ccc4c(c3)OCO4)c2N)cc1 -20.1%, CSc1ncc(Cl)c(C(=O)Nc2c(C(=O)Nc3cccc(C)c3)oc3ccccc23)n1 2.21%, COc1cc(CSc2ncc(CO)n2Cc2ccc(C)cc2)cc(OC)c1 17.7%, COc1ccc(CNC(=O)CCCN2C(=O)CCn3nc(-c4cn(C)c5ccccc45)cc32)cc1 0.409%, Cc1c(Cl)cccc1NC(=O)CSc1nc(=O)[nH]c2c1CCCC2 -1.57%, O=C(NCCc1ccc(Cl)cc1)C1(c2cccs2)CCOCC1 35.6%, Cc1ccc(-n2c(=O)c3cccnc3n2CC(=O)Nc2ccc(C)cc2Cl)cc1 -3.88%, COc1ccc(OC)c(NC(=O)Cn2ncc3c2-c2ccccc2OC3)c1 10.6%, O=C(NCCC1=CCCCC1)C1CCN(C(=O)N2CCOc3ccccc32)CC1 -0.475%, O=C1CN(C(=O)c2ccc(S(=O)(=O)N3CCCCC3)cc2)C(c2ccc(F)cc2)c2cc(Cl)ccc2N1 (centres undefined) -20%, Cc1cccc(-c2nc(CS(=O)CC(=O)NCc3ccc(Cl)cc3)c(C)o2)c1 (centres undefined) -0.277%, O=C(NCCc1ccccc1)c1ccc(CSc2nc3cccnc3n2Cc2ccccc2F)cc1 -49.3%, COc1ccc(C2=C(C)C(=O)N(Cc3ccc(C(=O)Nc4ccc(F)cc4C)cc3)S2(=O)=O)cc1 -13.4%, CCN(CC)CCn1c(=N)n(CCOc2ccccc2Cl)c2ccccc21 -10.7%, CCOC(=O)c1cc(-c2ccccc2)n(CC(=O)NCc2ccc(C)cc2)c1C -10.7%, COc1cccc(-c2cn3c(n2)sc2cc(C(=O)NCc4ccccc4F)ccc23)c1 -18%, CCOC(=O)C(=O)CCc1ccccc1 0.467%, COc1ccc(-c2[nH]ncc2C(=O)NCc2cccc(Cl)c2)cc1 -7.45%
